Measured values reported in the supplement of paper PMC3334620.
The full ranking holds about 33,000 sequences; the median of “E-score (-0.5 to 0.5)” is about -0.04, and the highest 2% start at about 0.36. The list shows a part of the results.

target: T1, Hmlalpha2 (UniProt P0CY09); assay: PBM E-score (8-mer binding enrichment) (E-score (-0.5 to 0.5)); higher = stronger / more preferred TF binding; most listed sequences are background and not binding sites; conditions: protein concentration: 200 nM; construct: GST-full length
T1 sequence: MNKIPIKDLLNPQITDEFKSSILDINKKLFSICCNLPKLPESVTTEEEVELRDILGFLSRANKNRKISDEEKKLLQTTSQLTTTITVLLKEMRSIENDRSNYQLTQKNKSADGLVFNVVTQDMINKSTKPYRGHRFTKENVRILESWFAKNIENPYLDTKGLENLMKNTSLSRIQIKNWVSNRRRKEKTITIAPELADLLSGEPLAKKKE
How it was run: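 Masliner-normalised scans of fluorescent anti-GST signal were the basis for scoring. That signal came from GST-tagged yeast transcription factors applied at about 100-200 nM to double-stranded universal all-10-mer Agilent arrays on fresh or once-stripped slides. Each ungapped eight-base word, pooled with its reverse complement, received an E-score from the Universal PBM Analysis Suite.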

Sequence | PBM E-score
AAGCAGAG | -0.0565
ACTCCTGC | -0.115
GCAGACCA | -0.185
ATCTCGGG | -0.157
GCACTTTA | 0.0891
ACGCGACA | 0.231
GCAGAGAA | 0.0113
GCCGGTCC | -0.423
CGGCTCAC | -0.0995
CGCGAGCC | -0.234
CCGGGGAA | -0.0784
AATGGAAA | -0.0212
AAGGGCAT | -0.141
AATCACAA | 0.066
AGTCCGAT | -0.0997
GTCTCAAC | -0.0177
GATTATAA | 0.0937
ACTGGTCA | 0.02
ATTGAGAG | -0.0922
AAAGGATA | -0.00272
AGCGGTAC | 0.0292
CAGTACAG | 0.0351
GCCCAACA | 0.0958
AATCCCCT | -0.25

Sequence | PBM E-score
AATTAGTC | 0.137
CAGGCTTC | -0.0702
CCGAAGCC | -0.274
CAGTGCGA | -0.104
CCGGACTC | -0.0206
AGCTGATG | 0.0229
CAGTAGGG | -0.186
GGCGCGGA | -0.23
ATAGTCGG | -0.107
AGTGTGAC | 0.0615
ACGTCCCC | -0.0609
ATCCTAGA | -0.104
AGGGTACG | 0.0138
ACAGTAGA | 0.176
ACAAATAC | 0.3
CGTCTCCA | -0.0468
ATCGGGAC | -0.17
AAGGGATC | -0.156
ATCCCGTA | 0.118
AGTCCAGA | -0.0435
AGGAGCTA | -0.107
CGGAGATA | -0.185
CAGCACCG | -0.189
CTGAAGAC | -0.23

Sequence | PBM E-score
CCGAGTAA | 0.183
ACGACTTA | -0.104
GGTCACAC | -0.0337
GACTGCAC | -0.153
TAACCCGA | 0.0718
TACTACGA | 0.17
CCAGACAA | -0.138
TAGGGTGA | -0.0617
TCCTCTAA | -0.127
CTACCCTA | -0.15
GGCTCGTA | 0.147
GGCATGCA | 0.128
TCCGCCAA | -0.29
CTCATTAC | 0.315
GTTTACAA | 0.425
ACGGCCTC | -0.274
ACTTGCTG | 0.0428
ATGGACCC | -0.176
ATTATACG | 0.256
AACCCTAC | -0.0838
AGGCCAAG | -0.247
CATGTGTA | 0.427
AGGAGCAC | -0.18
CGAATGCA | 0.145

Sequence | PBM E-score
AACAGGGA | 0.0712
CAGAGTGC | -0.135
CCCACCCC | -0.238
AGCCTCTA | -0.27
ACATCTTG | 0.00807
AATAAACG | 0.214
AGATATTC | -0.109
GATAATAC | 0.115
ACGCAGGA | 0.115
AATGTAAG | 0.294
ATACATAT | 0.393
AAGAGGGG | -0.322
CCGCGTCG | 0.132
GCTTTAAA | 0.095
CATGCGCA | 0.187
ACGCCCTG | -0.00258
GCGCGGCC | -0.135
TGGGGTAA | 0.00932
AATGGGCT | -0.0382
AACCGGAA | -0.215
CCGACGCA | -0.14
ACCCAATA | -0.129
AGCGCTGC | 0.0316
ATAACATG | 0.452
